Experimental findings from PubChem BioAssay AID360 (National Center for Advancing Translational Sciences (NCATS), 2006) are described below.

Hit rate of the full screen: of about 48,000 compounds, about 550 (1.1%) were called active. About 4% were inconclusive and are not listed. Cut-off read from the data, not from the text of the source: active = potency below about 15 µM; inconclusive = mostly about 16 µM to 33 µM; inactive = weaker than that. The list shows a part of the results.
Potency is the fitted concentration of half-maximal effect.

The target of this assay is Lysosomal acid glucosylceramidase (Homo sapiens) (UniProt P04062). In words: Glucocerebrosidase.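 Note: the screen sought inhibitors.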 Conditions: purified enzyme, resorufin glucoside fluorescence (screen aimed at inhibitors), 20 min. In a few lines: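 Compounds titrated against 0.2 nM normal enzyme, 30 uM resorufin beta-D-glucopyranoside substrate, citrate/phosphate buffer with taurocholate and tween-20, pH 5.9. Reaction ran 20 min at room temperature; fluorescence (Ex 548/Em 600) gave AC50.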
Sequence of UniProt P04062 (P04062 whole entry, looked up): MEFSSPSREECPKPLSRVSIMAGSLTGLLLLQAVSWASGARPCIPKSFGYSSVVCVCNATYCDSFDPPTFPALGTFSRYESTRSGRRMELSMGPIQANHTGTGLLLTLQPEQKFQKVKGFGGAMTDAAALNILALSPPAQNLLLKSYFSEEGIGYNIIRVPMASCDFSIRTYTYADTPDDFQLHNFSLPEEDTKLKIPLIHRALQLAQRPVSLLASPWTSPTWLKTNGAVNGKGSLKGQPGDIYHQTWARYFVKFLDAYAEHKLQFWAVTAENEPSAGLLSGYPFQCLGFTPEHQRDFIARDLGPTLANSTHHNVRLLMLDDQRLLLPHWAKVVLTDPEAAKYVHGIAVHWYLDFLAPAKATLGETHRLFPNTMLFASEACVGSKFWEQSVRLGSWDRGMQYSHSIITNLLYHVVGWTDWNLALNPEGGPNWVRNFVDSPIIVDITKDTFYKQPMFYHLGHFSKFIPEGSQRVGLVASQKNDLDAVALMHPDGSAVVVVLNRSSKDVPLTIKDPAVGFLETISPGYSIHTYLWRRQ
As to `CCN1C(=O)CC(C(=O)NC)SC1=Nc1cc(Cl)c(O)c(Cl)c1` (stereo not given), the Potency was inactive: > 76.9 µM. In the case of `CCOc1ccc2nc(NCCNC(=O)Nc3cccc(C)c3)c(C#N)cc2c1`, the Potency was inactive: > 76.9 µM. As for `CCCc1cc(=O)oc2cc3oc(C)c(C)c3cc12`, the Potency is inactive: > 76.9 µM.

In the case of `COC(=O)c1cn(C)c2ccc(S(=O)(=O)N3CCCC3)cc2c1=O`, the Potency is inactive: > 76.9 µM.

As for `COC(=O)c1cn(CC(=O)N2CCCCCC2)c2ccccc12`, the Potency was inactive: > 76.9 µM. On to `Cc1cccc(Nc2ncc3c(n2)CC(c2ccco2)CC3=O)c1` (stereo not given), for which the Potency was inactive: > 76.9 µM. For `CCOC(=O)N1CCC2(CC1)C(C(=O)C13CC4CC(CC(C4)C1)C3)C2(C#N)C#N` (stereo not given) the value was inactive: > 76.9 µM; for `CCCN1C2CCCC1CC(NC(=O)c1ccccc1F)C2` (stereo not given), inactive: > 76.9 µM. Take `CCOC(=O)N1CCN(C(=O)c2ccc(NS(C)(=O)=O)cc2)CC1`: the Potency is inactive: > 76.9 µM.

For `CCOC(=O)C(C)n1cnc2c(nnn2Cc2ccc(Cl)cc2)c1=O` (stereo not given), the Potency is inactive: > 76.9 µM.

Take `COc1cc2c(cc1OC)-c1cc(N3CCCCCC3)nc(=O)n1CC2`: the Potency was inactive: > 76.9 µM. Regarding `CC(=O)Nc1nc2c(c3c1c(=O)oc1ccccc13)CC(C)CC2` (stereo not given), the Potency is inactive: > 76.9 µM.

As for `C=CCNC(=O)c1ccccc1NS(=O)(=O)c1ccc(SC)cc1`, the Potency result was “inactive”. For `CC(C)CCNC(=O)NC(=O)CSc1nnc2ccccn12`, the Potency is inactive: > 76.9 µM. On to `CSc1ccccc1NC(=O)CN(c1cc(C)cc(C)c1)S(C)(=O)=O`, for which the Potency is inactive: > 76.9 µM. Regarding `Cc1csc(SCC(=O)Nc2cccc3nsnc23)n1`, the Potency was inactive: > 76.9 µM. Consider `C/C(=N\S(=O)(=O)c1ccc(C)cc1)N1CCN(S(=O)(=O)c2ccccc2)C1`, for which the Potency was inactive: > 76.9 µM. For `Cc1cc(C)n(-c2nc(C)nc(N)n2)n1` the value was inactive: > 76.9 µM; for `CCCCC(CC)C(=O)Nc1ccccc1C#N` (stereo not given), inactive: > 76.9 µM. For `c1ccc(Cn2nnnc2CN2CCN(c3ncccn3)CC2)cc1` the value was inactive: > 76.9 µM.

Take `COc1ccc(C(=O)N2CCC(n3c(C)nc4cc(F)ccc43)CC2)cc1OC`: the Potency is inactive: > 76.9 µM. For `O=C(NC1=NCCS1)c1ccc(Cl)s1` the value was inactive: > 76.9 µM; for `Cc1cc(N2C(=O)c3ccc(C(=O)NCc4ccccc4)cc3C2=O)no1`, inactive: > 76.9 µM; for `COc1ccccc1C1C2C(=O)N(c3ccccc3)C(=O)C2ON1c1ccccc1` (stereo not given), inactive: > 76.9 µM.

Take `CC(=O)c1c(N2CCN(C(=O)c3ccco3)CC2)nc(=S)n(-c2ccccc2)c1C`: the Potency was inactive: > 76.9 µM.
